Substitutions are numbered along the chain they refer to. Names and notes keep the numbering of the source. ± gives the standard deviation of the averaged measurements. Laboratory Escherichia coli strains with one amino-acid change in an essential protein, pooled on minimal glucose agar with carbenicillin or gentamicin at twice the control MIC (plus kanamycin and chloramphenicol for the plasmids), 48 h. Fold change of barcode share against drug-free plates; higher = less susceptible. Active = above 20 in both replicates (the paper's putatively resistant). '<' = one read or none on drug, '>' = one read or none on a drug-free plate. Shares are relative, so most strains fall below 1 when a few take over. Listed are strains with at least 15 reads on both drug-free plates, and hits; most hits rest on fewer reference reads. Replicate rank correlation about 0.5. Edits are read from barcodes.
B1: murC L318A (protein)
chain: MNTQQLAKLRSIVPEMRRVRHIHFVGIGGAGMGGIAEVLANEGYQISGSDLAPNPVTQQLMNLGATIYFNHRPENVRDASVVVVSSAISADNPEIVAAHEARIPVIRRAEMLAELMRFRHGIAIAGTHGKTTTTAMVSSIYAEAGLDPTFVNGGLVKAAGVHARLGHGRYLIAEADESDASFLHLQPMVAIVTNIEADHMDTYQGDFENLKQTFINFLHNLPFYGRAVMCVDDPVIRELLPRVGRQTTTYGFSEDADVRVEDYQQIGPQGHFTLLRQDKEPMRVTLNAPGRHNALNAAAAVAVATEEGIDDEAILRAAESFQGTGRRFDFLGEFPLEPVNGKSGTAMLVDDYGHHPTEVDATIKAARAGWPDKNLVMLFQPHRFTRTRDLYDDFANVLTQVDTLLMLEVYPAGEAPIPGADSRSLCRTIRGRGKIDPILVPDPARVAEMLAPVLTGNDLILVQGAGNIGKIARSLAEIKLKPQTPEEEQHD
B2: murC L318W (protein)
chain: B1 chain with A318W
B3: murC L318Q (protein)
chain: B1 chain with A318Q
B4: murC V82A (protein)
chain: B1 chain with V82A, A318L
B5: murC M188A (protein)
chain: B1 chain with M188A, A318L

Molecular target: Escherichia coli (laboratory strain)
Test: barcode share on antibiotic plates over drug-free plates; higher = less susceptible
Method: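 A pool of E. coli strains, each edited to carry one amino-acid change in an essential protein, was grown for 48 h on minimal glucose agar with or without antibiotic; strain barcodes were sequenced; mean of two replicates.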

[1] = antibiotic: carbenicillin, 2× MIC (3.1 µg/mL)
[2] = antibiotic: gentamicin, 2× MIC (MIC 0.45 µg/mL)

Row | Protein | fold change of barcode share [1] | fold change of barcode share [2]
1 | B1 | 0.2767 ± 0.0027 | 0.00863 ± 0.0054
2 | B2 | 0.323 ± 0.053 | 0.016 ± 0.015
3 | B3 | 0.14 ± 0.035 | 0.0115 ± 0.011
4 | B4 | 0.196 ± 0.024 | 
5 | B5 | 0.228 ± 0.062 | 0.00701 ± 0.0049
